In the assay the test system is T1, C. trachomatis L2/434/Bu expressing GFP (CTL2-GFP).
T1 construct: L2/434/Bu GFP intracellular growth in HeLa cells
Details: species or system HeLa; C. trachomatis total inclusion area by high-content imaging, normalised to DMSO. The gist of the method:
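After bulk GFP and resorufin fluorescence reads, cells were fixed, stained with Hoechst and imaged by high-content microscopy. Inclusion area and number (GFP) stood in for chlamydial growth, nuclei count (Hoechst) for host cell viability. MICs were derived as for the bulk readout.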

The mark [1] stands for this setting: total inclusion area; 28.5 h, 10 µM; inhibitor.

Like-named read-outs stand apart in the source and are kept apart here. This is one part of the list.

`Cc1cc(C(=O)N(C)CC2(C)COC2)nc2ccccc12` [CBK281956]: the “% of control remaining” value under setting [1] worked out at 92.3254.

Regarding `CC(=O)Nc1ccc(NCc2nc(C(C)C)no2)c(C(F)(F)F)c1` [CBK305743], the “% of control remaining” value under setting [1] is recorded as 45.998.

As for `CSCC1CCCN(C(=O)c2cc3ncc(CCO)cn3n2)C1` (stereo not drawn) [CBK307256], under setting [1], the “% of control remaining” value is on record as 69.8924.

In the case of `COc1ccc(C)c2sc(NC(=O)c3sc(C)nc3C)nc12` [CBK287401], the “% of control remaining” value under setting [1] is listed as 108.819.

With `Cn1ncc(Cl)c1C1CCCCCN1C(=O)c1cccnc1` (stereo not drawn) [CBK285146], the “% of control remaining” value under setting [1] is on record as 132.164.

Turning to `Cc1ccc(C(=O)N(Cc2nc(-c3ccc(Cl)cc3)no2)C(C)C)cc1[N+](=O)[O-]` [CBK268422], the “% of control remaining” value under setting [1] is listed as 76.6838.

`Cc1oc2ccc(NS(=O)(=O)c3ccccc3)cc2c1C(=O)O` [CBK287071]: the “% of control remaining” value under setting [1] is 101.602.

Regarding `Cc1[nH]c2c(C)ccc(C)c2c1CC(=O)N1[C@@H](c2ccccc2F)C[C@@H]2NC(=O)CCC[C@H]21` [CBK286011], under setting [1], the “% of control remaining” value stood at 125.638.

For `Brc1ccc(CSc2ncn[nH]2)cc1` [CBK027819], the “% of control remaining” value under setting [1] is 100.506.

For the compound `CC(=O)Nc1ccc(CNC(=O)c2cccnc2OCC(F)(F)F)cc1` [CBK305682], the “% of control remaining” value under setting [1] worked out at 32.3871.

Take `Cc1c(C(=O)NC(=S)Nc2ccc(O)c(-c3nc4ccccc4s3)c2)oc2ccccc12` [CBK264223]: under setting [1], the “% of control remaining” value worked out at 105.704.

`COCCN1C(=O)C2(CC(=O)N(CC3CCCCC3)C2=O)c2ccccc21` (stereo not drawn) [CBK075355]: the “% of control remaining” value under setting [1] came out at 98.8488.

With `Cc1ccc(C(=O)Nc2cccc(-n3c(C)nc4ccccc4c3=O)c2)cc1` [CBK287725], the “% of control remaining” value under setting [1] amounted to 107.38.

Take `COc1ccc(C(=O)N2CCC3(CCCN(CCCn4c(=O)[nH]c5ccccc54)C3)C2)cc1OC` (stereo not drawn) [CBK132856]: the “% of control remaining” value under setting [1] is given as 96.0523.

`Clc1ccc(COc2nccnc2OCCOc2ccccc2)cc1Cl` [CBK161853]: under setting [1], the “% of control remaining” value is listed as 82.1113.

For `CCN(CC(=O)NCc1ccc(F)cc1)S(=O)(=O)c1c(C)n[nH]c1C` [CBK306074], under setting [1], the “% of control remaining” value is listed as 74.0704.

With `CCCCOc1ccc(C(=O)N/C(=C/c2ccc(OC)cc2)C(=O)O)cc1` [CBK300490], the “% of control remaining” value under setting [1] is 91.6418.

For the compound `Cc1ccc(C)c(OCC(=O)Nc2ccccc2C(=O)N2CCN(C)CC2)c1` [CBK269924], the “% of control remaining” value under setting [1] worked out at 96.1007.

Turning to `CCOC(=O)C1CCN(C(=O)c2c(-c3ccccc3)noc2C)CC1` [CBK158704], the “% of control remaining” value under setting [1] was found to be 116.703.

Turning to `O=C(N[C@@H](Cn1cc(F)c(=O)[nH]c1=O)C(=O)O)C1CCCC1` [CBK289660], the “% of control remaining” value under setting [1] is 103.657.

Regarding `Cn1ncc2c1CCCN(C(=O)Cc1ccc(Cl)cc1)C2` [CBK285231], the “% of control remaining” value under setting [1] is given as 107.896.

Consider `COc1cc(CNC(C)c2ccccc2)ccc1OCC(N)=O` (stereo not drawn) [CBK269982C], for which the “% of control remaining” value under setting [1] is recorded as 78.2168.

Consider `COc1ccc(Oc2nccnc2N2CCN(CCc3ccccn3)CC2)cc1OC` [CBK083067T], for which the “% of control remaining” value under setting [1] is given as 90.0499.

Take `Cc1[nH]c2ccc(CNC(=O)Cn3ccnc3C(C)C)cc2c1C` [CBK281540]: under setting [1], the “% of control remaining” value is 88.0941.

With `O=C(CNC(=O)c1ccccc1)OCC(=O)c1ccc(Cl)c(Cl)c1` [CBK261611], the “% of control remaining” value under setting [1] was determined as 88.803.

As for `CC1CCCC(C)N1c1nn(C)c(=O)[nH]1` (stereo not drawn) [CBK019114], the “% of control remaining” value under setting [1] is given as 51.0543.

As for `O=C1N[C@]2(CCc3ccccc31)CN(Cc1ccsc1)C[C@H]2CO` [CBK284793], the “% of control remaining” value under setting [1] is recorded as 79.8637.

`CC1CCc2c(sc(NC(=O)c3cccs3)c2C(=O)N(C)C)C1` (stereo not drawn) [CBK307100]: the “% of control remaining” value under setting [1] turned out to be 40.1127.

`Clc1ccc(COc2nccnc2OC2CCN(CC3CC3)CC2)cc1Cl` [CBK083123T]: the “% of control remaining” value (total inclusion area, 28.5 h, 10 µM, inhibitor) was determined as 66.2895.

On to `Cc1nc(C2CCN(Cc3cccc(F)c3)CC2)ncc1C(=O)Nc1ccc(F)cc1` [CBK285668], for which the “% of control remaining” value under setting [1] came out at 96.5207.

Consider `CC(C)c1cc(C(=O)N(CCO)CC2CC3C=CC2C3)n(C)n1` (stereo not drawn) [CBK282164], for which the “% of control remaining” value under setting [1] was found to be 99.2299.

For the compound `Cc1ncsc1C(=O)N1CCN(Cc2ccco2)C[C@@H]1C(C)C` [CBK285486], the “% of control remaining” value under setting [1] came out at 95.7129.

Regarding `Cc1ccc(NC(=O)NC(=O)C2CCN(CCCc3ccc(F)cc3)CC2)cc1Cl` [CBK035057], the “% of control remaining” value under setting [1] came out at 92.8848.

Regarding `CCc1cc2c(NC(C(=O)O)C(C)C)ncnc2s1` (stereo not drawn) [CBK265349], under setting [1], the “% of control remaining” value is recorded as 99.628.

For the compound `CN1CCN(CCC(=O)N/N=C/c2ccccc2O)CC1` [CBK261497], the “% of control remaining” value under setting [1] was 108.483.

Regarding `CCC1(C)CC(C(N)=S)CCO1` (stereo not drawn) [CBK008954], the “% of control remaining” value under setting [1] was found to be 105.74.

Turning to `CN(C)C(=O)Cc1ccc(-c2ccccc2)cc1` [CBK012162], the “% of control remaining” value under setting [1] came out at 52.2899.

As to `Cc1cn2c(=O)c(C(=O)Nc3ccc(F)c(C(F)(F)F)c3)cnc2s1` [CBK287713], under setting [1], the “% of control remaining” value came to 76.8644.

For the compound `CCc1ccc(OCC(=O)c2ccc(O)c(CN(C)C)c2O)cc1` [CBK264438C], the “% of control remaining” value under setting [1] came out at 113.572.

As to `O=C(CN1C(=O)c2ccccc2C1=O)Nc1ccccc1C(=O)N1CCN(c2ccccc2)CC1` [CBK269251], the “% of control remaining” value under setting [1] worked out at 113.092.

For the compound `O=C1CC[C@@H](NCc2cccc(O)c2)[C@H](c2cc(F)cc(F)c2)N1` [CBK282909], the “% of control remaining” value under setting [1] is 96.5685.

For `COc1ccccc1Oc1ccc(NS(=O)(=O)c2cccc(C(=O)O)c2)cc1` [CBK296728], under setting [1], the “% of control remaining” value was 118.136.

Consider `NC(=O)C1CCN(CC(=O)Nc2cc(C(F)(F)F)ccc2Cl)CC1` [CBK269776], for which the “% of control remaining” value under setting [1] came to 103.177.

As for `O=C(NCCO)c1ccc(-c2cnc3[nH]c(=O)n(C4CCOCC4)c3n2)cc1` [CBK065041], the “% of control remaining” value under setting [1] is given as 60.7186.

On to `c1cnc(OC2CCN(Cc3ccc4c(c3)OCO4)CC2)c(OCCN2CCOCC2)n1` [CBK082925T], for which, under setting [1], the “% of control remaining” value was 63.5246.

Regarding `O=C(Cc1cccs1)N1CCC(n2nc(C3CC3)ccc2=O)CC1` [CBK284243], under setting [1], the “% of control remaining” value is recorded as 77.8237.

With `O=C(C1CCCCC1)N1CCCC(c2cc3cccnc3[nH]2)C1` (stereo not drawn) [CBK284938], the “% of control remaining” value under setting [1] came to 69.1099.

As for `Cc1nc(Nc2ccc(Cl)cc2)nc(OC2CCNCC2)n1` [CBK024848], under setting [1], the “% of control remaining” value is recorded as 113.828.

`Cc1nc(CN2C(=O)CC(Cc3cnn(C)c3)C2=O)nc2ccccc12` (stereo not drawn) [CBK305415]: the “% of control remaining” value under setting [1] is on record as 63.3587.

As for `Cn1c(=O)c2[nH]c(N3CCCCC3)nc2n(C)c1=O` [CBK027630], the “% of control remaining” value under setting [1] turned out to be 59.7112.

On to `Cc1ccc(C(=O)/C=C\Nc2ccc(S(=O)(=O)Nc3cc(C)nc(C)n3)cc2)cc1` [CBK264384], for which the “% of control remaining” value under setting [1] is recorded as 38.4429.

(Values after publication PMC12040169 (PLOS Biology, 2025).)
